From PubChem BioAssay AID1963576 (National Center for Advancing Translational Sciences (NCATS), 2024)
The campaign covered roughly 46,000 compounds. About 60 (0.1%) were called active. About 3% were inconclusive and are not listed. Calls follow the shape of the dose curve; as a rule, active = well fitted inhibition curve with a large enough effect; inconclusive = small, poorly fitted or top-dose-only effect; inactive = no such curve, though single readings can be large or run the other way. Some of the results follow.

Experiment: Primary qHTS assay for Inhibitors of ovarian cancer metastasis using an organotypic tumor microenvironment (TME) model. Also: nearly all actives have a fitted effect of over 65% in size.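 As to activity change, negative = inhibition: plate controls were DMSO wells for no effect and tomatine positive control wells for full effect.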
Settings: SKOV3ip1-GFP adhesion/invasion on 3D omental model, fluorescence; series mostly up to 45.8 µM; activity change, negative = inhibition: at the top concentration
Method in brief: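 Adhesion/invasion was scored as fixed GFP-labeled SKOV3ip1 cell counts (488/509 nm), normalized to DMSO and tomatine controls. Cancer cells in serum-free medium, with four compound doses (0.36-46 umol/L), sat 2 hr at RT then 16 hr at 37 C on a 48 hr fibroblast/mesothelial/ECM culture.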

Row | Compound | activity change, negative = inhibition | outcome
1 | Cc1ccc2oc3c(c(=O)c2c1)C(c1ccccc1F)N(CCCN(C)C)C3=O (stereo unspecified) | inactive: 3.87% | –
2 | CCOc1ccccc1NC(=O)C(CC)Sc1nc2ncccc2[nH]1 (stereo unspecified) | inactive: -0.43% | –
3 | O=C(NCc1ccc2c(c1)CCN2C(=O)c1ccccc1)c1ccccc1 | inactive: 4.19% | –
4 | Cc1ccc(C)c(N2CCN(C(=O)CCS(=O)(=O)c3cc4c(cc3Cl)NC(=O)CO4)CC2)c1 | inactive: 22.4% | –
5 | COC(=O)c1sc2ncccc2c1-n1c(C)ccc1C | inactive: 1.33% | –
6 | CCOC(=O)N1CCN(C(=O)c2c(C)nn(-c3cccc(C)c3)c2-n2cccc2)CC1 | inactive: -8.64% | –
7 | COc1ccccc1CNS(=O)(=O)c1ccc2c(c1)CC(=O)N2C | inactive: -1.24% | –
8 | Cc1oc(-c2ccccc2Cl)nc1CS(=O)CC(=O)NCc1ccc(Cl)cc1 (stereo unspecified) | inactive: -6.32% | –
9 | Cc1cc(C(F)F)n2nc(C(=O)Nc3ccc(C(C)C)cc3)nc2n1 | inactive: 2.47% | –
10 | CCC1CN(C(=O)Nc2cccc3c2CCCC3)c2cc(Cl)ccc2O1 (stereo unspecified) | inactive: -14.5% | –
11 | O=C(Cn1ncc2ccsc2c1=O)N1CCN(c2ccc(F)cc2)CC1 | inactive: 5.82% | –
12 | Cc1ccc(-n2ncc3c(N4CCC(C(N)=O)CC4)ncnc32)cc1 | inactive: 6.05% | –
13 | COc1ccc(CCNC(=O)CSc2cn(CCNC(=O)c3cccc(C(F)(F)F)c3)c3ccccc23)cc1OC | inactive: 6.43% | –
14 | Cc1ccc(NC(=O)Cc2coc3ccc(C(C)C)cc23)c(C)c1 | inactive: -0.276% | –
15 | CC1CCc2c(sc(NC(=O)c3cc(-c4cccc(Cl)c4)on3)c2C(N)=O)C1 (stereo unspecified) | inactive: 4.65% | –
16 | O=C(Cn1c2ncccc2c(=O)n1-c1ccccc1)NCc1ccccc1Cl | – | inactive
17 | COc1cccc(CNC(=O)C(C)n2ncn3cccc3c2=O)c1OC (stereo unspecified) | inactive: -16% | –
18 | CCOc1ccc(-c2cn(-c3ccc(C)cc3)c(SCC(=O)Nc3ccc(C)cc3)n2)cc1 | inactive: 6.43% | –
19 | COc1ccc(CNS(=O)(=O)c2cc3c4c(c2)CCN4C(=O)CC3)cc1 | – | inactive
20 | O=C(CSc1nc2c([nH]c3ccccc32)c(=O)n1-c1cccc(Cl)c1)NCC1CCCO1 (stereo unspecified) | – | inactive
21 | Cc1ccc(COc2ccc(-c3cc(C(F)(F)F)n4nc(C)cc4n3)cc2)cc1 | – | inactive
22 | O=S(=O)(Nc1nc2ccccc2nc1Nc1ccccc1Br)c1ccccc1 | inactive: -5.38% | –
23 | Fc1ccc(-c2ccc(CNCCSc3nnnn3-c3ccccc3)o2)cc1 | inactive: -0.941% | –
24 | O=C(CSc1nc2c(sc3ccccc32)c(=O)n1CCCC(=O)NC1CCCC1)Nc1ccc(F)cc1 | – | inactive

Row | Compound | activity change, negative = inhibition | outcome
25 | CS(=O)(=O)c1oc(-c2ccc(F)cc2)nc1S(=O)(=O)c1ccc(Cl)cc1 | – | inactive
26 | O=C(NCc1ccc(F)cc1)C1CCCN(c2ncnc3onc(-c4ccc(F)cc4)c23)C1 (stereo unspecified) | inactive: -15.4% | –
27 | COc1ccc(-n2c(=O)c3c(C)c(C)sc3n(CC(=O)NCc3ccc(C)cc3)c2=O)c(OC)c1 | – | inactive
28 | CCOc1ccccc1CNC(=O)c1ccc(-c2nc(CSc3ccc(C)cc3)c(C)o2)cc1 | inactive: -7.96% | –
29 | COc1ccc(/C=C\C(=O)NC2CC(=O)N(c3ccc(F)cc3)C2)cc1OC (stereo unspecified) | inactive: -19.6% | –
30 | COc1cccc(-n2c(SCC(=O)Nc3cccc(Cl)c3)nc3c(oc4ccccc43)c2=O)c1 | inactive: 76.2% | –
31 | O=C(CSc1cn(CCNC(=O)c2ccccc2F)c2ccccc12)Nc1ccccc1F | inactive: 5.67% | –
32 | Cc1c(NC(=O)CC(C)C)cccc1-c1nc2cccnc2s1 | inactive: -14.2% | –
33 | CCc1ccc(NCc2cc3ccc(OC)cc3n(CC(=O)Nc3ccc(C(C)C)cc3)c2=O)cc1 | inactive: -8.3% | –
34 | CCOC(=O)CNC(=O)c1ccc(-c2nn(C)c(=O)c3ccccc23)cc1 | – | inactive
35 | COc1ccc(Cl)cc1NC(=O)CSC1=Nc2ccccc2C2=NC(CC(=O)NC3CCCCC3)C(=O)N12 (stereo unspecified) | inactive: -5% | –
36 | Cc1ccc(Nc2c(-c3ccsc3)nc3cccc(C)n23)cc1 | inactive: 1.54% | –
37 | COc1ccccc1NC(=O)C1=C(C)Nc2nc(SCc3ccc(Cl)cc3)nn2C1c1ccccc1Cl (stereo unspecified) | inactive: 6.43% | –
38 | CC(NC(=O)C1CCN(C(=O)c2ccc(-n3ccc4ccccc43)s2)CC1)c1ccccc1 (stereo unspecified) | inactive: -3.98% | –
39 | Cc1ccc(NC(=O)Cn2nnc(-c3nc(-c4ccncc4)no3)c2N)c(C)c1 | inactive: -7.66% | –
40 | Cc1ccc(NC(=O)c2ccc3oc(=O)c(S(=O)(=O)c4ccccc4)cc3c2)cc1C | – | inactive
41 | CCOC(=O)c1c(NC(C)=O)c2c3c(sc2n1Cc1ccc(Cl)cc1)CCCC3 | – | inactive
42 | COc1cc(C2NC(=O)N(C)C3=C2C(=O)N(c2cccc(Cl)c2)C3)ccc1O (stereo unspecified) | inactive: -17.3% | –
43 | CC1CCN(C(=O)c2cc3c(=O)n(C)c4ccccc4c3s2)CC1 | inactive: 24.1% | –
44 | CCOc1ccc(OC(=O)c2cn(-c3cccc(OC)c3)c(=O)c3ccccc23)cc1 | – | inactive
45 | CCOC(=O)C1CCN(C(=O)CN2c3ccc(C(C)C)cc3-c3ccccc3S2(=O)=O)CC1 | inactive: -2.13% | –
46 | Cc1ccc(CNC(=O)c2ccc(CSCc3ccccc3Cl)o2)cc1 | inactive: -7.53% | –
47 | Cc1cccc(CNC(=O)C(=O)Nc2ccccc2C)c1 | inactive: 9.54% | –
48 | Fc1ccccc1-n1ncc2c1ncn1nc(-c3ccccc3Cl)nc21 | inactive: 4.73% | –

Row | Compound | activity change, negative = inhibition | outcome
49 | COc1ccccc1CNC(=O)CCC1N=C2c3ccccc3N=C(SCC(N)=O)N2C1=O (stereo unspecified) | inactive: 5.41% | –
50 | CC(=O)c1cccc(NC(=O)C2=CC(c3ccc4c(c3)OCO4)=NS(=O)(=O)N2C)c1 | inactive: -4.13% | –
51 | Cc1ccc(NC(=O)c2c(NC(=O)Cc3ccccc3)sc3c2CCC3)cc1 | inactive: 0.597% | –
52 | CCN1C(=O)c2ccccc2Sc2ccc(NC(=O)Nc3ccccc3OC)cc21 | inactive: -3.81% | –
53 | COC(=O)Cc1c(C)c2cc3c(c(C)c2oc1=O)OCN(CCc1ccccc1F)C3 | inactive: 2.59% | –
54 | CCc1ccc(CNC(=O)C2CCN(c3nc4ccccc4nc3C(F)(F)F)CC2)cc1 | inactive: -14.7% | –
55 | COc1ccc(Cn2c(CCC(=O)Nc3cccc(OC)c3)nc3cccnc32)cc1 | inactive: -5.5% | –
56 | CC(=O)N1CCc2cc(CNC(=O)Nc3cc(Cl)ccc3C)ccc21 | inactive: 1.92% | –
57 | Cc1ccc(S(=O)(=O)NCC(c2ccc(N(C)C)cc2)N2CCc3ccccc32)cc1C (stereo unspecified) | inactive: 6.84% | –
58 | Cc1cccc(C)c1NC(=O)CSc1nc2ncccc2o1 | inactive: -4.57% | –
59 | COc1cccc(CNc2nccn(-c3cc(C)cc(C)c3)c2=O)c1 | inactive: 1.16% | –
60 | CN(C)c1ccc(-c2nc3cnccn3c2Nc2cccc(C(F)(F)F)c2)cc1 | – | inactive
61 | COc1ccc(NC(=O)Cn2c(=O)n(Cc3ccco3)c(=O)c3cc(OC)c(OC)cc32)cc1 | inactive: 7.96% | –
62 | COc1ccc2cc(-c3nc(Cl)c4c5c(sc4n3)CCCC5)c(=O)oc2c1 | – | inactive
63 | Clc1ccc2nc(NCc3ccccc3)c3nncn3c2c1 | inactive: -9.24% | –
64 | CCSc1ncc(Cl)c(C(=O)Nc2ccc(S(=O)(=O)N3CCC(C)CC3)cc2)n1 | inactive: 2.51% | –
65 | COCCn1c(CCC(=O)Nc2ccc(C)c(Cl)c2)nc2cccnc21 | inactive: 11.3% | –
66 | Cc1ccc(-n2ncc(C(=O)NCCN3CCOCC3)c2C2CCN(C(=O)OC(C)(C)C)CC2)c(C)c1 | inactive: 17.4% | –
67 | Cc1ccc(NC(=O)CSC2=Nc3ccccc3C3=NC(Cc4ccccc4)C(=O)N23)cc1C (stereo unspecified) | inactive: 2.03% | –
68 | CCCCN(CCCNC(=O)c1ccc(Sc2ccc(Cl)cc2)c(NC(C)=O)c1)c1ccccc1 | inactive: -2.11% | –
69 | Cc1cc2c(cc1S(=O)(=O)CCC(=O)N1CCCC(C)C1)OCC(=O)N2 (stereo unspecified) | inactive: -6.26% | –
70 | O=C(NC(=O)c1ccccc1)Nc1ccc(-n2nc(C(F)(F)F)cc2C(F)(F)F)cc1 | inactive: 4.64% | –
71 | Cc1cccc(Nc2c(-c3cccs3)nc3nc(C)cc(C)n23)c1 | – | inactive
72 | CCc1ccc(CNC(=O)c2cc3c(=O)n(CC)c4ccccc4c3s2)cc1 | – | inactive

Row | Compound | activity change, negative = inhibition | outcome
73 | CCCCn1c(=N)c(S(=O)(=O)c2ccc(Cl)cc2)cc2c(=O)n3cccc(C)c3nc21 | inactive: -6.55% | –
74 | CC(C)(C)OC(=O)N1CCC(c2c(C(=O)NCc3ccccc3)cnn2-c2ccccc2)CC1 | inactive: 6.84% | –
75 | CC1CCC(NC(=O)c2ccc3c(c2)N(Cc2ccccc2)C(=O)c2ccccc2S3(=O)=O)CC1 (stereo unspecified) | – | inactive
76 | COc1ccccc1CNC(=O)CCc1c(C)nc2c(c(C)nn2-c2ccc(C)c(C)c2)c1C | – | inactive
77 | O=C(c1ccc2c(c1)CCN2S(=O)(=O)c1ccccc1)N1CCN(c2cccc(Cl)c2)CC1 | inactive: 5.35% | –
78 | CCOC(=O)CNc1nc2ccccc2n2c(C)nnc12 | inactive: -13.6% | –
79 | Cc1ccc(CNC(=O)c2cnc(N3CCCCC3)c3ccccc23)cc1 | inactive: -15.1% | –
80 | CCc1ccc(NC(=O)CSc2nc3c(sc4ccccc43)c(=O)n2CCCOC)cc1 | inactive: -7.77% | –
81 | CCOc1ccccc1CNC(=O)CN1C(=O)CSc2ccc(S(=O)(=O)N3CCOCC3)cc21 | inactive: -1.05% | –
82 | COc1ccc(OC)c(NC(=O)Cn2c(=O)n(CC3CCCO3)c(=O)c3cc(OC)c(OC)cc32)c1 (stereo unspecified) | inactive: 1.99% | –
83 | COc1ccc(NC(=O)CN(C)S(=O)(=O)c2ccc3c(c2)CCC(=O)N3)c(OC)c1 | inactive: 0.796% | –
84 | Cc1cccc(C(=O)N2CCc3cc(CNC(=O)c4ccc(Br)o4)ccc32)c1 | – | inactive
85 | O=[N+]([O-])c1ccc(S(=O)(=O)NCc2nc3cccnc3n2Cc2ccccc2Cl)cc1 | inactive: -0.198% | –
86 | Cc1ccc(C)c(OCCn2cc(C(=O)c3cccs3)c3ccccc32)c1 | inactive: -0.758% | –
87 | Cc1c(C(=O)OCC2CCCCC2)[nH]c2c1C(=O)CC(c1ccc(F)cc1)C2 (stereo unspecified) | inactive: 2.04% | –
88 | COCc1cc(C)nc2sc(C(=O)Nc3ccc(OC(F)(F)F)cc3)c(N)c12 | inactive: -8.39% | –
89 | O=c1nc2c(-c3ccc(F)cc3Cl)n[nH]n2c2ccccc12 | inactive: 16.5% | –
90 | COC(=O)c1cc(NC(=O)C2CCCN(S(=O)(=O)c3c(C)n[nH]c3C)C2)cc(C(=O)OC)c1 (stereo unspecified) | – | inactive
91 | COc1ccc(C)cc1NC(=O)Cn1c(=O)nc(-c2ccccc2F)c2cc(Cl)ccc21 | – | inactive
92 | CCOC(=O)c1c(C)[nH]c(CCC(=O)Nc2c(Cl)cc(OC)cc2OC)c1C | – | inactive
93 | Cc1ccc(C(=O)O)cc1-n1c(C)ccc1-c1ccccc1 | inactive: -9.16% | –
94 | CCOC(=O)C1CCCN(S(=O)(=O)c2ccc3c(c2)CCN3C(=O)CC)C1 (stereo unspecified) | – | inactive
95 | CCc1ccccc1NC(=O)CN(c1cccc(C)c1C)S(C)(=O)=O | inactive: -9.19% | –
96 | O=C(CSc1nncn2c1cc1occc12)Nc1ccccc1C(F)(F)F | inactive: -0.472% | –
